# Assay results: the RNAGym collection of RNA variant scans (doi:10.1073/pnas.2313332121)
# Variants at the floor of the assay are shown more often than the library holds them.
# B1: TPR 5TU (parent)
# chain: GGAUCUUCUCGAUCUAACAAAAAAGACAAAUCUGCCACAAAGCUUGAGAGCAUCUUCGGAUGCAGAGGCGGCAGCCUUCGGUGGCGCGAUAGCGCCAACGUUCUCAACUAUGACACGCAAAACGCGUGCUCCGUUGAAUGGAGUUUAUCAUG
# Variants of: B1
# Assay: polymerase ribozyme fitness, log enrichment relative to wild type (log ratio); higher = more active; in vitro selection for triplet polymerase activity
# Outline: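 The heterodimeric triplet polymerase ribozyme's subunits were each mutagenized into PCR-built libraries and transcribed. Every library was selected once, in triplicate, by annealing with a biotinylated primer, the partner subunit and triplets, incubating frozen at −7 °C, gel-excising extended constructs, capturing on streptavidin beads and running RT-PCR. Input and output libraries were Illumina-sequenced, with genotypes kept only at ≥10 input reads and ≥1 read per output. Fitness, from inverse-variance-weighted replicate averages, is the base-2 logarithm of genotype enrichment over wild-type enrichment.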
row,Variant,polymerase ribozyme fitness (log ratio)
1,G50C C76G C85U U146G,≤ -4.2
2,G50C C76U U90A C93U U104G U144C,≤ -4.2
3,G50C C79A G92C C96A A150G,≤ -4.2
4,G50C C79A U90G U148G,≤ -4.2
5,G50C C85U C129G,≤ -4.2
6,G50C C87A,≤ -4.2
7,G50C C87A C93A C99U A137U A138C,≤ -4.2
8,G50C C87A C114G A150C,≤ -4.2
9,G50C C87A C129U G140A,≤ -4.2
10,G50C C87G,≤ -4.2
11,G50C C87U A122U,-3.11
12,G50C C93A C103G A113G A115U G140C,≤ -4.2
13,G50C C93A G143A,≤ -4.2
14,G50C C95A,-2.7
15,G50C C96U A97U C99U,≤ -4.2
16,G50C C123U,-2.4
17,G50C G59U C87U C116A G140U,≤ -4.2
18,G50C G59U C118U,-2.35
19,G50C G62A G65A U77G U82G C114U C123G G141A U144C,≤ -4.2
20,G50C G62U C87A C129G G133A,≤ -4.2
21,G50C G65U C75U A98U,≤ -4.2
22,G50C G67C C96G G133A,≤ -4.2
23,G50C G68A C87U,≤ -4.2
24,G50C G68U C85U G92U A106G,≤ -4.2

row,Variant,polymerase ribozyme fitness (log ratio)
1,G50C G70C C72U C95A A121U,≤ -4.2
2,G50C G71C C79A C95G A121U U127G G136U U139C A142C U145G,≤ -4.2
3,G50C G71U A97U,≤ -4.2
4,G50C G74A C85A U102C A115C,≤ -4.2
5,G50C G74C A106G A107G U134A,≤ -4.2
6,G50C G80A C85U C87U C108U,≤ -4.2
7,G50C G83A G88A A98G C149A,≤ -4.2
8,G50C G83C G88U U146A,≤ -4.2
9,G50C G84U U135A,≤ -4.2
10,G50C G86A,≤ -4.2
11,G50C G86U U104A A137U G140U,≤ -4.2
12,G50C G86U U111G,≤ -4.2
13,G50C G88A,≤ -4.2
14,G50C G88U C93A,≤ -4.2
15,G50C G92U C131A A147C,≤ -4.2
16,G50C G94A U127C G133U A138C,≤ -4.2
17,G50C G94A U135C G143A,≤ -4.2
18,G50C G112C U127C,≤ -4.2
19,G50C G133U,≤ -4.2
20,G50C G152C,≤ -4.2
21,G50C U53A C95G,≤ -4.2
22,G50C U53A U56A C76U U78G C87G,≤ -4.2
23,G50C U53G U55A C87U C99A C132U U134A A138U U148G,≤ -4.2
24,G50C U55A A73G G92A A120C A150G,≤ -4.2

row,Variant,polymerase ribozyme fitness (log ratio)
1,G50C U55A A91U C93G,≤ -4.2
2,G50C U55A C72A A91C A142C,≤ -4.2
3,G50C U55A C75U G141U,≤ -4.2
4,G50C U55C C96G C105G G124A U135A,≤ -4.2
5,G50C U55G G67A C75A C87U U134G A137G,≤ -4.2
6,G50C U55G G83U C99A C108G C149U,≤ -4.2
7,G50C U55G G94A A106C U134A C149A,≤ -4.2
8,G50C U56A C69G G81U G143A,≤ -4.2
9,G50C U56A C87G G100A U101A U135C,≤ -4.2
10,G50C U56A G59C,-3.03
11,G50C U56A G88C A120G,≤ -4.2
12,G50C U56A G92U,≤ -4.2
13,G50C U61A A64G G100A C108U G124A G133C,≤ -4.2
14,G50C U78A C85U,≤ -4.2
15,G50C U78G C93A C116U C125U,≤ -4.2
16,G50C U78G G86A C123U,≤ -4.2
17,G50C U90C C96U A119G A122G G128A,≤ -4.2
18,G50C U109G A113G A120C U130G,≤ -4.2
19,G50U A52G C54A A60U G86A G92A U146A,≤ -4.2
20,G50U A52G C85A U109A U148G,≤ -4.2
21,G50U A60C G74A G80U A119U,≤ -4.2
22,G50U A60U C75U,≤ -4.2
23,G50U A60U C87U G94A U146A,≤ -4.2
24,G50U A64G G71A U82G A91U C125A,≤ -4.2

row,Variant,polymerase ribozyme fitness (log ratio)
1,G50U A66G,≤ -4.2
2,G50U A66G A73C G84U U134A,≤ -4.2
3,G50U A91G,-2.52
4,G50U A98U U146A U148G,≤ -4.2
5,G50U A113C U139G,-3.93
6,G50U A150G,-2.11
7,G50U C51U A73U C96U C116G,≤ -4.2
8,G50U C54U C87A G141A A142C,≤ -4.2
9,G50U C54U C93A G136U,-4.07
10,G50U C57A C76A A122U C131G,≤ -4.2
11,G50U C57A U78C G80U G94A U109C,≤ -4.2
12,G50U C57G,0.0255
13,G50U C69G G80U A120U U139C G141C,≤ -4.2
14,G50U C72A A89C G92A C129A A137G A150U,≤ -4.2
15,G50U C72G G86U A106U,≤ -4.2
16,G50U C75A C95A U109C A122U G126A G136U,≤ -4.2
17,G50U C76U C87A U104G A107C C132G,≤ -4.2
18,G50U C85U C131U C132A G133A,≤ -4.2
19,G50U C87A,≤ -4.2
20,G50U C87G C103U G133C,≤ -4.2
21,G50U C87U C114A,-3.78
22,G50U C93G,-3.35
23,G50U C95A U109G,-3.26
24,G50U C105U,0.638

row,Variant,polymerase ribozyme fitness (log ratio)
1,G50U G58A,0.88
2,G50U G58C U61A G70A U90G C95U C99A U101G,≤ -4.2
3,G50U G65A A91C A121G G128A A137U,≤ -4.2
4,G50U G65U C76A C79U C96A G141C,≤ -4.2
5,G50U G67A C76U G84C A98G C99U G141A,≤ -4.2
6,G50U G67U G84A C85U G141A,≤ -4.2
7,G50U G68U G86U,≤ -4.2
8,G50U G74A C85U,-3.88
9,G50U G74U,≤ -4.2
10,G50U G81A C96G A142U,-2.59
11,G50U G84U,-1.81
12,G50U G88A,≤ -4.2
13,G50U G88C,≤ -4.2
14,G50U G88U U148G,≤ -4.2
15,G50U G94A U104C G133U U148A A150C,≤ -4.2
16,G50U G126C A138U,≤ -4.2
17,G50U U55A A64G G80A,≤ -4.2
18,G50U U55A G126U,-0.316
19,G50U U56A A91G C116U,-2.81
20,G50U U56A G88U C93G,≤ -4.2
21,G50U U61A C93G C105U A107G,≤ -4.2
22,G50U U77G,≤ -4.2
23,G50U U78A,≤ -4.2
24,G50U U78A A91C,≤ -4.2

row,Variant,polymerase ribozyme fitness (log ratio)
1,G50U U127A G133U,≤ -4.2
2,C51A A52C A64C C95U U101C A121C G133C U135G,≤ -4.2
3,C51A A52C C75A G83U G88C A91G C123G G126U A147U U151G,≤ -4.2
4,C51A A52G C87G,≤ -4.2
5,C51A A52G G58A C85A C93G A107C,≤ -4.2
6,C51A A52G G68A A142C U144A,≤ -4.2
7,C51A A52G U77C A115U U135A,≤ -4.2
8,C51A A113G,≤ -4.2
9,C51A C54A G62C G70A G81A G140U,≤ -4.2
10,C51A C54G G59C G84A C116G,-3.63
11,C51A C54U C85G C96U U102A C125G,≤ -4.2
12,C51A C54U G70A U111A A119C C149A,≤ -4.2
13,C51A C57U G68U G92C A150U,≤ -4.2
14,C51A C63A U82A,-0.419
15,C51A C69A,≤ -4.2
16,C51A C69U C75U C87G C93G U139A,≤ -4.2
17,C51A C69U G71A G80U C114U G152U,≤ -4.2
18,C51A C72A G80U U146C,≤ -4.2
19,C51A C72U G74C C93A G141A,≤ -4.2
20,C51A C75U A98U,-3.28
21,C51A C85A,-2.75
22,C51A C85U U102G A147C A150U,≤ -4.2
23,C51A C87U A106C U145C,≤ -4.2
24,C51A C87U C118U U144A U145G U148C,≤ -4.2

row,Variant,polymerase ribozyme fitness (log ratio)
1,C51A C93U,-2.22
2,C51A C95U A97U,-2.64
3,C51A C95U A119G,-1.34
4,C51A C96U A97U,-2.73
5,C51A G68A G81A C99G U135C,≤ -4.2
6,C51A G68C,≤ -4.2
7,C51A G74U A119U G133C U148A,≤ -4.2
8,C51A G80U,≤ -4.2
9,C51A G81A A147G U148G,≤ -4.2
10,C51A G83A C87A U104G A115G C125U,≤ -4.2
11,C51A G83U U104G A150C,≤ -4.2
12,C51A G86A C87U,≤ -4.2
13,C51A G92U,-1.06
14,C51A G94C,-1.47
15,C51A G94U C103U C129A,≤ -4.2
16,C51A U53A C57G G84A A97U C116G,≤ -4.2
17,C51A U55A A64C A106C A137U,≤ -4.2
18,C51A U55A C57G G92C C93A G133U U144G,≤ -4.2
19,C51A U55A G83A C85U,≤ -4.2
20,C51A U55G C95U C105A G117U,≤ -4.2
21,C51A U56A U78A G83C A97U G126A,≤ -4.2
22,C51A U61A C95U,-2.06
23,C51A U78G C79A G83A C114A,≤ -4.2
